# Where “and” joins values, the source holds several entries; their conditions need not be identical. Equal entries are not always repeated. The campaign covered roughly 360,000 compounds. About 16,000 (4.4%) were called active. Inconclusive results, whose numbers are uncertain, are shown with a selection of clear calls. Calls come from the whole dose curve; as a rule, active = well fitted inhibition curve with a large enough effect; inconclusive = small, poorly fitted or top-dose-only effect; inactive = no such curve, though single readings can be large or run the other way. A potency beside an inconclusive call is a rough fit, not a confirmed value.
# Biological target: Bromodomain adjacent to zinc finger domain protein 2B (Homo sapiens) (UniProt Q9UIF8)
# Chain of UniProt Q9UIF8 (Q9UIF8 whole entry, looked up, the tested form may be a part): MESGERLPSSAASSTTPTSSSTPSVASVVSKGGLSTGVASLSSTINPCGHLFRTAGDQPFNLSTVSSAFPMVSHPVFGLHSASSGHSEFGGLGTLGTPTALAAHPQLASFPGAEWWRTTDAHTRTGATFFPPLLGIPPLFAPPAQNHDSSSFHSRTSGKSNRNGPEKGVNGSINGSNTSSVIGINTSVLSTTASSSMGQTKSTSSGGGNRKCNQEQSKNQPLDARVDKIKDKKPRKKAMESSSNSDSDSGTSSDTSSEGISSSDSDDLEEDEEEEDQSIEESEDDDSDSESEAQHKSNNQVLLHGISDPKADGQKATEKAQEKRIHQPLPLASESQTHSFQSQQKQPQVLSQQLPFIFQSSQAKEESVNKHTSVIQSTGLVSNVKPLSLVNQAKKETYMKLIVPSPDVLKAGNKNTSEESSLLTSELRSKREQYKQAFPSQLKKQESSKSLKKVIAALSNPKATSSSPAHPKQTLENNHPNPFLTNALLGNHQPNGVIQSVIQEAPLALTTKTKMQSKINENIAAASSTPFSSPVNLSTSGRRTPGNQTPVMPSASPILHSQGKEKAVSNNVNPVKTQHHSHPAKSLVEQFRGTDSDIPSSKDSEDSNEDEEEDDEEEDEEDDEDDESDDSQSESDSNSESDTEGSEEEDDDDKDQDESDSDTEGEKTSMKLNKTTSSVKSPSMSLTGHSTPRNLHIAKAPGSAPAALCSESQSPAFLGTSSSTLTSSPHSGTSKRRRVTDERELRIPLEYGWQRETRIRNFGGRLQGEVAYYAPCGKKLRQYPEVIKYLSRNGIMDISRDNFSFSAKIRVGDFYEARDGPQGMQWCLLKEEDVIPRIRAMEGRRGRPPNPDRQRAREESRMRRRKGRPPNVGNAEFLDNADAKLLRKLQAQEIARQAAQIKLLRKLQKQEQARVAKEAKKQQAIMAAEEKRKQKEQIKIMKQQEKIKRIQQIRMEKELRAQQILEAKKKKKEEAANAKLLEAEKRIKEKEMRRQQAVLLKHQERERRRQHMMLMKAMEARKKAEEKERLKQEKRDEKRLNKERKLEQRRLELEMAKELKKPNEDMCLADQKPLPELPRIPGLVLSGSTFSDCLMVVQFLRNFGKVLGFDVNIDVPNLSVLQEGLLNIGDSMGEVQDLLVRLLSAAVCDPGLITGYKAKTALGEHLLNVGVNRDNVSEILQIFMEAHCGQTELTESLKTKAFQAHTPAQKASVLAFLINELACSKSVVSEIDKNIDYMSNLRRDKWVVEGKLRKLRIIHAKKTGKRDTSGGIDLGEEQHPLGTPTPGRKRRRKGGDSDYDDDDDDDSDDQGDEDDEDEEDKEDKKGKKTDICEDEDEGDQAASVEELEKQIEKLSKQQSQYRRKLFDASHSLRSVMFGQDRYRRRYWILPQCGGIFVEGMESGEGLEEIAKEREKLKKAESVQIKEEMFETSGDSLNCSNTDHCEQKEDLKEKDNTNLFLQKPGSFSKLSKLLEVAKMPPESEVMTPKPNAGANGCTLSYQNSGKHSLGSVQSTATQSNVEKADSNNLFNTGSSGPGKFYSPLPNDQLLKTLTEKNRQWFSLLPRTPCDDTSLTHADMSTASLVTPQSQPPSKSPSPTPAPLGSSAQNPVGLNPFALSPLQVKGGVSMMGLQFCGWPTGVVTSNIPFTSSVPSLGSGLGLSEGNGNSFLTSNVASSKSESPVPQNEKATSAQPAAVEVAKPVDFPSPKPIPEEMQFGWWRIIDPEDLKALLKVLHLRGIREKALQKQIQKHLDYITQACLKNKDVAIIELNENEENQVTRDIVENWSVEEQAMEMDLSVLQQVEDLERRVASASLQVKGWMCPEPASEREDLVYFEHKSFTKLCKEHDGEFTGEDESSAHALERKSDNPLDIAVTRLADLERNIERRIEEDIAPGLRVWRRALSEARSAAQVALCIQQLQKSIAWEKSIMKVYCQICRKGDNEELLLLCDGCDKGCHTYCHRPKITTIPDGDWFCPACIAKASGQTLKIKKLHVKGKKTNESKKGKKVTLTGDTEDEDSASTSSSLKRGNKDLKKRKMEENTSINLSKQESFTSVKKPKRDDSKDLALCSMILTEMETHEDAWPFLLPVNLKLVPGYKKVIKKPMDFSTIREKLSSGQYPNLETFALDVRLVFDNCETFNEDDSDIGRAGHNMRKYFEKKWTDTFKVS
# Test: qHTS Assay for Inhibitors of BAZ2B; note: nearly all actives have a fitted effect of over 60% in size
# Settings: AlphaScreen BAZ2B-H3K14Ac peptide displacement; series mostly up to 114 µM
# Procedure, shortened: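 Multi-concentration screen (max 110 uM) measuring displacement of acetylated histone H3 peptide from BAZ2B by AlphaScreen, using 50 nM protein, 50 nM peptide and 10 ug/mL streptavidin donor plus Ni-chelate acceptor beads.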
# Potency is the fitted concentration of half-maximal effect; tags give direction and shape of the fitted curve.
row,SMILES,Potency
1,Cc1cc([N+](=O)[O-])ccc1NC(=O)COc1nsnc1N1CCOCC1,"inconclusive: 70.8 µM [inhibitor, single point]"
2,CCN(CC)CCN(C(=O)c1ccc(C(=O)c2ccccc2)cc1)c1nc2ccc(OC)cc2s1,"inconclusive: 35.5 µM [inhibitor, partial curve]"
3,CCCc1cc(C(=O)NNC(=S)NC(C)c2ccccc2)cs1 (stereo not drawn),inactive
4,Cc1ccc(S(=O)(=O)N2CCC(N3CCN(Cc4ccccc4)C(=O)C3=O)CC2)cc1C,inactive
5,CCOc1ccc(CN2CCN(Cc3[nH]c4ccc(OC)cc4c3C)CC2CCO)cc1 (stereo not drawn),"inconclusive: 50.1 µM [inhibitor, partial curve]"
6,O=[N+]([O-])c1ccc(/C=N/Nc2nc(N3CCCCC3)nc(N3CCCCC3)n2)cc1,"inconclusive: 4.47 µM [inhibitor, full curve, poor fit]"
7,N#Cc1c(SCc2ccccc2)sc(C(=O)c2ccccc2)c1N,inactive
8,O=C(c1ccc(Cn2cc(Cl)cn2)o1)N1CCN(Cc2ccc3c(c2)OCO3)CC1,"inconclusive: 56.2 µM [inhibitor, partial curve]"
9,C=CCc1cccc(OC)c1OCCOCCNCCO,active: 56.2 µM
10,O=C(Nc1ccc(C(=O)O)cc1)/C(=C\c1ccc([N+](=O)[O-])cc1)NC(=O)c1ccc(Br)cc1,"inconclusive: 79.4 µM [inhibitor, single point]"
11,CCOC(=O)c1c(NC(=O)Cc2coc3cc(C)cc(C)c23)sc2c1CCC2,inactive
12,CC(=O)Nc1ccc(-c2cc(NC(C)=O)n(-c3ccccc3)n2)cc1,"inconclusive: 89.1 µM [inhibitor, single point]"
13,COc1ccccc1/C=C/C(=O)c1c2c(c(C)[nH]c1=O)CCCC2,"inconclusive: 79.4 µM [inhibitor, partial curve]"
14,CC(=O)c1ccc(NC(=O)c2cc(C)nn2-c2ccccc2)cc1,"inconclusive: 89.1 µM [inhibitor, single point]"
15,Cc1nn(Cc2n[nH]c(=S)n2Cc2ccccc2)c(C)c1Cl,inactive
16,O=C(O)c1ccc(NC(=S)NC(=O)c2ccc(-c3ccc(Br)cc3)o2)cc1,active: 39.8 µM
17,CC12CC3(C)CC(C)(C1)CC(C(=O)Nc1nn[nH]n1)(C2)C3,"inconclusive: 89.1 µM [inhibitor, single point]"
18,CCCCOc1ccc(C2c3c(oc4ccc(C)cc4c3=O)C(=O)N2CCCN(C)C)cc1OCC (stereo not drawn),inactive
19,COC(=O)c1cc(-c2cc(OC)ccc2OC)nc2c1c(=O)n(C)c(=O)n2Cc1ccccc1,inactive
20,CS(=O)(=O)N1CCN(c2ccccc2NC(=O)C(c2ccccc2)c2ccccc2)CC1,inactive
21,CCOC(=O)N1CCc2c(sc3c2C(=O)NC(c2ccc(N(C)C)cc2)N3)C1 (stereo not drawn),"inconclusive: 79.4 µM [inhibitor, single point]"
22,COC(=O)c1ccc2c(C)c(C(C)(C)O)[nH]c2c1,"inconclusive: 79.4 µM [inhibitor, single point]"
23,O=C1Nc2ccccc2Oc2cc([N+](=O)[O-])cc(Oc3ccccc3)c21,"inconclusive: 56.2 µM [inhibitor, single point]"

row,SMILES,Potency
1,COc1cc(C(=O)O)nc(OC)n1,active: 70.8 µM
2,Cc1ccc(NC(=O)CN2C(=O)S/C(=C\c3cc(C)n(-c4cccc(C(=O)O)c4)c3C)C2=O)cc1,active: 44.7 µM
3,S=C(NCc1ccco1)N1CCN(Cc2ccc(Cl)cc2Cl)CC1,"inconclusive: 89.1 µM [inhibitor, single point]"
4,Cc1ccc(-n2c(Cc3ccccc3)n[nH]c2=S)cc1,inactive
5,CC(C)(C)NC(=O)C(c1cccnc1)N(C(=O)c1ccc(Cl)nc1)C1CCCC1 (stereo not drawn),active: 56.2 µM
6,O=C(CN1C(=O)S/C(=C\c2ccccc2)C1=O)NCCCn1ccnc1,"inconclusive: 44.7 µM [inhibitor, partial curve]"
7,Cc1ccc(C(=O)Nc2ccc3c(c2)OCO3)cc1S(=O)(=O)N1CCCC1,"inconclusive: 89.1 µM [inhibitor, single point]"
8,COc1ccc(C(=O)NCCS(=O)(=O)NC2CCCC2)cc1,inactive
9,Cc1cc(Cl)ccc1OCC(=O)N[C@@H](Cc1ccccc1)c1nc2ccccc2[nH]1,active: 56.2 µM
10,C=CCN=c1scc(C)n1/N=C/c1ccc(O)c(O)c1,active: 39.8 µM
11,Cc1ccc(C2C3=C(CC(C)(C)CC3=O)Nc3[nH]c(=S)[nH]c(=O)c32)cc1 (stereo not drawn),"inconclusive: 89.1 µM [inhibitor, single point]"
12,CC(=O)c1ccc(N2CCN(S(=O)(=O)c3cc4[nH]c(=O)c(=O)[nH]c4cc3C)CC2)cc1,"inconclusive: 89.1 µM [inhibitor, single point] and inconclusive: 100 µM [inhibitor, single point]"
13,N#Cc1ccc(C23CC4(C2)[C@H](CN(Cc2cccnc2)[C@@H]4c2ccccc2)C3c2ccccc2)cc1 (stereo partly drawn),"inconclusive: 79.4 µM [inhibitor, single point]"
14,CCN(C(=O)Cn1cnc2cc([N+](=O)[O-])ccc2c1=O)C1CCS(=O)(=O)C1 (stereo not drawn),"inconclusive: 79.4 µM [inhibitor, single point]"
15,COc1cccc(/C=C/C(=O)c2c(O)cc(C)oc2=O)c1O,"inconclusive: 79.4 µM [inhibitor, partial curve]"
16,CCOC(=O)CSc1nc(-c2ccc(OCC)cc2)cc(C(F)(F)F)c1C#N,"inconclusive: 89.1 µM [inhibitor, single point]"
17,Cc1cc(C)c2ccc(C)[n+]([O-])c2c1O,"inconclusive: 89.1 µM [inhibitor, single point]"
18,COc1ccc(CN2CCC(C(=O)N3CCCC(C)C3)CC2)cc1OC (stereo not drawn),active: 50.1 µM
19,CC(C)(C)C#CCn1c(/C=[N+](\[O-])C2CCCCC2)nc2ccccc21,active: 50.1 µM
20,O=C(N/N=C/c1ccc([N+](=O)[O-])o1)c1sc2ccccc2c1Cl,"inconclusive: 89.1 µM [inhibitor, single point]"
21,CC1CCN(S(=O)(=O)c2ccc3c(c2)n(C)c(=O)n3C)CC1,"inconclusive: 79.4 µM [inhibitor, single point]"
22,COc1ccc(NC(=O)C2CCN(C(=O)[C@@H]3Cc4ccccc4CN3)CC2)cc1,"inconclusive: 89.1 µM [inhibitor, single point]"
23,O=C(O)/C(=C\c1ccco1)NC(=O)c1cccc2ccccc12,"inconclusive: 89.1 µM [inhibitor, single point]"

row,SMILES,Potency
1,NC(=O)C1(N2CCCCC2)CCN(C(=O)c2ccc(C#Cc3ccccc3)o2)CC1,"inconclusive: 50.1 µM [inhibitor, partial curve]"
2,COc1ccccc1CNCC(=O)Nc1ccc(C(F)(F)F)cc1,active: 56.2 µM
3,O=[N+]([O-])c1cccn2cc(-c3ccc(Br)cc3)nc12,"inconclusive: 12.6 µM [inhibitor, partial curve, poor fit]"
4,COc1ccc(CCn2c(C)cc(C(=O)COC(=O)c3cnc(C)cn3)c2C)cc1,"inconclusive: 89.1 µM [inhibitor, single point]"
5,C/C(=N\NC(=S)Nc1c(C)cccc1C)c1ccc(O)cc1,"inconclusive: 44.7 µM [inhibitor, partial curve]"
6,COc1ccc(-n2cnc3cc(NCc4cccs4)ccc32)cc1,active: 17.8 µM
7,CC(C)(CC(=O)O)CC(=O)O,"inconclusive: 89.1 µM [inhibitor, single point]"
8,CCOC(=O)C1CCCN(C(=O)CC(C)c2ccccc2)C1 (stereo not drawn),inactive
9,Cc1nc2ccccc2n1C1CCN(CC(=O)NCc2ccc(F)cc2)CC1,"inconclusive: 89.1 µM [inhibitor, single point]"
10,O=[N+]([O-])c1ccccc1-c1ccc(C(=S)N2CCCC2)o1,active: 39.8 µM
11,COc1ccc(C(=O)c2oc3ccccc3c2NC(=O)c2cc(=O)c3ccc(C)cc3o2)cc1Cl,"inconclusive: 89.1 µM [inhibitor, single point]"
12,CC(C)C(NC(=O)c1ccc(C(C)(C)C)cc1)C(=O)Nc1cccc(S(N)(=O)=O)c1 (stereo not drawn),"inconclusive: 89.1 µM [inhibitor, single point]"
13,Cn1c(N)c(C(=O)COC(=O)C2CC(=O)N(Cc3ccccc3)C2)c(=O)n(C)c1=O (stereo not drawn),"inconclusive: 89.1 µM [inhibitor, single point]"
14,COc1cc(/C=C2\SC(=S)N(NC(=O)c3cccc(O)c3)C2=O)ccc1O,active: 35.5 µM
15,O=C(O)CN1C(=O)/C(=C2\SC(=S)N(C(Cc3ccccc3)C(=O)O)C2=O)c2ccccc21 (stereo not drawn),active: 56.2 µM
16,CCOc1ccccc1CN1CCNC(=O)C1CC(=O)N(C)Cc1nonc1C (stereo not drawn),inactive
17,CC(=O)c1c(C)[nH]c(C(=O)OCc2ccccc2)c1C,"inconclusive: 50.1 µM [inhibitor, partial curve]"
18,O=C(CCN1c2ccccc2Sc2ccccc21)OCC(=O)N1CCN(C(=O)c2ccco2)CC1,active: 50.1 µM
19,Cc1ccccc1C1c2[nH]c3ccccc3c2C[C@H]2C(=O)N(c3ccccc3C(=O)NCCCN3CCOCC3)C(=O)N12 (stereo partly drawn),"inconclusive: 44.7 µM [inhibitor, partial curve]"
20,Cc1c(O)ccc(C(=O)CN2CCN(c3ccccc3F)CC2)c1O,"inconclusive: 79.4 µM [inhibitor, single point]"
21,Cc1cc(NC(=O)/C=C/c2ccccc2Cl)no1,inactive
22,CCOc1ccc(Nc2ncnc3c2c(-c2ccccc2)cn3-c2cccc(C)c2)cc1,"inconclusive: 17.8 µM [inhibitor, full curve]"

# From PubChem BioAssay AID504333 (National Center for Advancing Translational Sciences (NCATS), 2011)
